Measurements as given in PubChem BioAssay (Tox21).
Values joined by “and” are separate entries in the source; they are usually repeats but may differ in a detail not shown here. Equal values may be shown once. Inconclusive means that the source gave no clear call. Such entries were picked first, then a sample of the others. Potencies of inconclusive entries are doubtful fits and often do not repeat. Some compounds were tested as several samples or in several runs, with calls that do not always agree. Active and inactive are the calls of the source. Calls follow the shape of the dose curve; as a rule, active = well fitted cell-killing curve with a large enough effect in the repeat runs; inconclusive = weak or mixed curves, or effect the other way; inactive = no such curve, though single readings can be large or run the other way.
Potency is read from the fitted curve at half-maximal effect; tags tell the direction and shape of the fitted curve.

Test: qHTS assay to identify small molecule agonists of the vitamin D receptor (VDR) signaling pathway - cell viability counter screen (AID 743224); also: nearly all actives have a fitted effect of over 50% in size
Details: VDR-bla HEK293T viability, CellTiter-Glo luminescence, 16 h; series mostly up to 62.6 µM
Excerpt: U.S. Tox21 Program National Center for Advancing Translational Sciences [NCATS] NIH Chemical Genomics Center [NCGC] U.S. Environmental Protection Agency [EPA] National Institutes of Environmental Health Sciences [NIEHS] National Toxicology Program [NTP] U.S. Food and Drug Administration [FDA] Tox21 Assay Overview: The vitamin D receptor (VDR), a member of nuclear hormone receptor superfamily, plays a critical role in calcium homeostasis and bone metabolism. It is also involved in cell differentiation and growth, and thrombogenicity. […] The cytotoxicity of the Tox21 compound library against the VDR-bla cell line was tested in parallel by measuring the cell viability using CellTiter-Glo assay (Promega, Madison, WI) in the same wells.
Tox21 Assay Protocol Summary: VDR-bla cells were dispensed at 2,000 cells/6 uL/well into black wall/clear-bottom 1536-well plates using a Multidrop Combi (Thermo Fisher Scientific, Waltham, MA) dispenser. After the assay plates were incubated at a 37C and 5% CO2 for 4 h, 23 nL of compounds dissolved in DMSO, positive controls or DMSO only was transferred to the assay plate by a Pintool station (Kalypsys, San Diego, CA). The plates were incubated at 37C and 5% CO2 for 16 h. After 1 uL of LiveBLAzerTM B/G FRET substrate was added using a Bioraptr Flying Reagent Dispenser (FRD) workstation (Beckman Coulter, Indianapolis, IN, USA), the plates were incubated at room temperature for 2 h, and fluorescence intensity was measured by an Envision plate reader (PerkinElmer, Shelton, CT). For cell viability readout that measures cytotoxicity, 3 ul/well of CellTiter-Glo reagent was added into the assay plates using a FRD. After 30 min incubation at room temperature, the luminescence intensity in the plates was measured using a ViewLux (PerkinElmer) plate reader.
With `O=C(Nc1ccc(Br)cc1)c1cc(Br)cc(Br)c1O` the Potency was active: 1.73 µM and active: 2.19 µM and active: 8.41 µM.
With `Oc1ccc2ccc3cccc4ccc1c2c34` the Potency was inconclusive: 49 µM [cytotoxic, single point].
In the case of `Brc1ccc(Oc2ccccc2)cc1`, the Potency is reported as inconclusive: 22.4 µM [cytotoxic, single point].
For `c1ccc(OCC2CO2)cc1` (stereo not given), the Potency was inconclusive: 61.9 µM [cytotoxic, single point].
For `CC(C)CC(C)Nc1ccc(Nc2ccccc2)cc1` (stereo not given), the Potency was active: 38.3 µM.
With `CN(C)CCc1c[nH]c2ccc(O)cc12` the Potency was inconclusive: 67 µM [cytotoxic, single point].
With `O=[N+]([O-])c1cc(C(F)(F)F)c(Cl)c([N+](=O)[O-])c1Cl` the Potency was active: 12.3 µM.
For `CCC(C)c1cc([N+](=O)[O-])cc([N+](=O)[O-])c1O` (stereo not given), the Potency was inconclusive: 1.74 µM [cytotoxic, full curve].
In the case of `N#Cc1c(Cl)c(Cl)c(Cl)c(C#N)c1Cl`, the Potency is reported as active: 1.91 µM and active: 1.95 µM.
For `C=CC1(C)OC(=O)N(c2cc(Cl)cc(Cl)c2)C1=O` (stereo not given), the Potency was inconclusive: 21.8 µM [cytotoxic, single point].
For `CCC(C)c1cccc(C(C)CC)c1O` (stereo not given), the Potency was inconclusive: 19.5 µM [cytotoxic, partial curve].
With `CCCCCCCC[N+](C)(CCCCCCCC)CCCCCCCC` the Potency was active: 6.15 µM and active: 3.09 µM and active: 5.49 µM.
In the case of `N#CCCSCCC#N`, the Potency is reported as “inactive”.
For `CC(C)=CC1C(C(=O)OCc2coc(Cc3ccccc3)c2)C1(C)C` (stereo not given), the Potency was inconclusive: 43.6 µM [cytotoxic, partial curve].
With `ClC1=C(Cl)[C@]2(Cl)[C@@H]3[C@@H]4C[C@@H]([C@H]5O[C@@H]45)[C@@H]3[C@@]1(Cl)C2(Cl)Cl` the Potency was active: 30.6 µM.
For `CCOP(=S)(OCC)Oc1nc(Cl)c(Cl)cc1Cl`, the Potency was inconclusive: 31 µM [cytotoxic, partial curve].
In the case of `Nc1ccc(Cl)cc1N`, the Potency is reported as active: 43.6 µM.
With `CCCCCCCCCCCCOS(=O)(=O)O` the Potency was inconclusive: 60.8 µM [cytotoxic] and inconclusive: 55 µM [cytotoxic, single point] and inconclusive: 54.9 µM [cytotoxic, single point].
With `CCOC(=O)[C@]1(c2ccccc2)Oc2ccccc2[C@@H]1N` the Potency was inconclusive: 61.6 µM [cytotoxic, single point].
With `Cc1cc(N=Nc2ccccc2C)ccc1N` the Potency was inconclusive: 21.9 µM [cytotoxic, partial curve] and inconclusive: 54.9 µM [cytotoxic, single point].
For `CCCCOCCOP(=O)(OCCOCCCC)OCCOCCCC`, the Potency was inconclusive: 21.9 µM [cytotoxic, partial curve, poor fit].
With `O=c1[nH]c2ccccc2n1C1CCN(CCCC(c2ccc(F)cc2)c2ccc(F)cc2)CC1` the Potency was active: 21.9 µM and inconclusive: 29.8 µM [cytotoxic, partial curve].
With `CCCCCCCCCCCCCCn1cc[n+](C)c1` the Potency was active: 8.72 µM and active: 24.3 µM.
In the case of `OCC(c1ccc(Cl)cc1)c1ccc(Cl)cc1`, the Potency is reported as inconclusive: 43.6 µM [cytotoxic, partial curve].
With `Cc1ccc([N+](=O)[O-])[c]2c1[O][Hg]2` the Potency was active: 3.76 µM.
With `Oc1cc(Cl)c(Cl)c(Cl)c1` the Potency was active: 36.9 µM.
For `O=C1C=CC(=O)C=C1`, the Potency was “inactive”.
For `O=c1c(C2CC(c3ccc(-c4ccc(Br)cc4)cc3)Cc3ccccc32)c(O)sc2ccccc12` (stereo not given), the Potency was inconclusive: 7.5 µM [cytotoxic, full curve, poor fit].
For `O=P(OCC(Br)CBr)(OCC(Br)CBr)OCC(Br)CBr` (stereo not given), the Potency was inconclusive: 55.7 µM [cytotoxic, single point] and inconclusive: 5.22 µM [cytotoxic, full curve].
With `CCC[CH2][Sn]([Cl])([Cl])[CH2]CCC` the Potency was active: 249 nM and active: 77.6 nM.
In the case of `C=CC(=O)OCCCCOC(=O)C=C`, the Potency is reported as inconclusive: 54.9 µM [cytotoxic, single point].
With `COCC(C)N(C(=O)CCl)c1c(C)csc1C` (stereo not given) the Potency was inconclusive: 49 µM [cytotoxic, single point].
For `CO/N=C(/C1=NOCCO1)c1ccccc1Oc1ncnc(Oc2ccccc2Cl)c1F`, the Potency was inconclusive: 12.3 µM [cytotoxic, full curve].
In the case of `Oc1cc(Cl)ccc1Oc1ccc(Cl)cc1Cl`, the Potency is reported as active: 20 µM and inconclusive: 29.8 µM [cytotoxic, partial curve].
With `Cc1ccc(N=C=O)cc1N=C=O` the Potency was “inactive”.
For `CCOP(=S)(OCC)Oc1cc(C)nc(C(C)C)n1`, the Potency was active: 24.5 µM.
With `O=[N+]([O-])c1ccc(Nc2ccccc2)cc1` the Potency was inconclusive: 54.9 µM [cytotoxic, single point].
With `Brc1ccc(Oc2ccc(Br)cc2Br)c(Br)c1` the Potency was inconclusive: 34.7 µM [cytotoxic, partial curve].
With `CCCCCC[n+]1ccccc1` the Potency was active: 39.3 µM and active: 49.3 µM.
With `O=C(Nc1ccccc1)Nc1ccnc(Cl)c1` the Potency was inconclusive: 19.5 µM [cytotoxic].
